This is one part of the list. The full chains were built here from the parent and the listed change. Inactive controls read about 0.05.
B1: TEV protease; numbered along this chain (parent)
chain: MGESLFKGPRDYNPISSSICHLTNESDGHTTSLYGIGFGPFIITNKHLFRRNNGTLVVQSLHGVFKVKDTTTLQQHLVDGRDMIIIRMPKDFPPFPQKLKFREPQREERICLVTTNFQTKSMSSMVSDTSCTFPSGDGIFWKHWIQTKDGQCGSPLVSTRDGFIVGIHSASNFTNTNNYFTSVPKNFMELLTNQEAQQWVSGWRLNADSVLWGGHKVFMVKPEEPFQPVKEATQL

Variants of: B1
Experiment: raw area under fraction-flipped curve 0-4 h after induction (AUC4h, not background-subtracted), DNA-recorder readout of cleavage of the substrate (dimensionless); higher = more cleavage of the substrate by the protease variant
Settings: temperature: 34 °C; time window: 0-4 h after rhamnose induction
Description: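 In vivo DNA recorder in E. coli TOP10(DE3) ΔrhaA at 34 °C. Each TEVp single-site mutant (parent TEVp 0) is paired with a single-site variant of the 7-mer TEVs (canonical ENLYFQ|S). The substrate sits between flexible linkers in a Bxb1-sfGFP-TEVs-SsrA fusion, so cleavage stabilises Bxb1 and speeds flipping of a recombination array, read by NGS. The value is the raw area under the fraction-flipped curve over 0-4 h after rhamnose induction (AUC4h), with ≥20 reads per time point. It is not background-subtracted; inactive controls average about 0.047.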
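Note: Bxb1 expression induced with 0.2% (w/v) L-rhamnose at OD600 near 0.5, cultures sampled hourly, flipped fraction per protease–substrate barcode pair counted by paired-end Illumina sequencing.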

| Variant | area with substrate ENLYFQA | area with substrate ENLYFQC | area with substrate ENLYFQF | area with substrate ENLYFQG | area with substrate ENLYFQH | area with substrate ENLYFQI | area with substrate ENLYFQK | area with substrate ENLYFQL | area with substrate ENLYFQM | area with substrate ENLYFQN | area with substrate ENLYFQP | area with substrate ENLYFQR | area with substrate ENLYFQS | area with substrate ENLYFQT | area with substrate ENLYFQV | area with substrate ENLYFQW | area with substrate ENLYFQY | area with substrate ENLYFQQ | area with substrate ENLYFQD | area with substrate ENLYFQE |
| --- | --- | --- | --- | --- | --- | --- | --- | --- | --- | --- | --- | --- | --- | --- | --- | --- | --- | --- | --- | --- |
| G39V | 0.0434 | 0.0402 | 0.0402 | 0.0517 | 0.0434 | 0.0484 | 0.0509 | 0.0506 | 0.041 | 0.0442 | 0.054 | 0.0322 | 0.0426 | 0.0457 | 0.0343 | 0.0466 | 0.0434 |  |  |  |
| P40A | 0.0901 | 0.118 |  | 0.11 | 0.0808 | 0.0714 | 0.0578 | 0.0516 | 0.0962 | 0.0766 |  | 0.0497 | 0.108 | 0.0626 | 0.058 | 0.0807 | 0.0815 | 0.0658 |  |  |
| I42D | 0.0447 |  | 0.035 |  | 0.0422 |  | 0.047 | 0.0509 | 0.0497 | 0.0439 |  |  | 0.0447 | 0.0464 |  | 0.0416 |  |  |  |  |
| I42G | 0.0542 | 0.0465 |  | 0.0631 | 0.0358 | 0.0572 | 0.059 | 0.0372 |  | 0.0419 |  | 0.0214 | 0.0439 | 0.0442 | 0.0367 | 0.0432 | 0.0403 |  |  |  |
| I42W | 0.0513 | 0.0747 | 0.105 |  | 0.0811 | 0.0458 | 0.0475 | 0.0587 |  | 0.0657 | 0.0389 | 0.0499 | 0.0768 | 0.0532 | 0.0483 | 0.0524 | 0.0582 | 0.0497 | 0.0588 | 0.0399 |
| I43V | 0.0968 |  |  | 0.0917 | 0.0862 |  | 0.0653 |  | 0.0793 |  | 0.0652 | 0.0642 | 0.101 | 0.0577 | 0.0413 |  | 0.065 | 0.0635 |  |  |
| N45D | 0.0607 | 0.0462 |  | 0.062 | 0.0662 | 0.0476 | 0.0617 | 0.0535 | 0.0582 | 0.0567 | 0.0636 | 0.0649 | 0.0607 | 0.0612 | 0.0546 | 0.0171 | 0.0493 |  | 0.0364 |  |
| N45S | 0.116 |  | 0.0608 | 0.0481 | 0.081 | 0.0621 | 0.0615 | 0.0608 | 0.0683 | 0.102 | 0.0576 | 0.0725 | 0.0768 | 0.056 | 0.0611 | 0.0512 |  | 0.048 |  |  |
| K46E | 0.0594 | 0.0563 | 0.052 | 0.0577 | 0.0514 | 0.0524 | 0.0553 | 0.0524 | 0.0582 | 0.0575 | 0.0539 | 0.0585 | 0.0606 | 0.0445 | 0.0495 | 0.0556 | 0.0418 | 0.0583 | 0.0541 |  |
| K46F | 0.0453 | 0.0518 |  |  |  |  | 0.0613 | 0.0655 |  | 0.0585 |  | 0.0442 | 0.071 | 0.0481 |  | 0.0502 | 0.0498 | 0.0596 | 0.0466 |  |
| K46R | 0.109 | 0.115 |  | 0.0891 |  | 0.0605 | 0.0607 | 0.058 | 0.0937 |  | 0.0623 | 0.0644 | 0.093 | 0.0652 |  | 0.0512 | 0.0746 | 0.0632 | 0.0586 |  |
| H47A | 0.0522 |  |  | 0.0731 | 0.0619 | 0.0585 |  |  |  | 0.0606 |  | 0.0531 | 0.0605 |  | 0.0575 |  |  |  | 0.0576 |  |
| H47R | 0.0639 | 0.0588 | 0.059 |  |  | 0.0601 |  | 0.0622 | 0.0564 | 0.0547 |  | 0.0565 | 0.0578 | 0.0693 |  | 0.0585 | 0.0573 | 0.0371 | 0.0622 |  |
| R50L | 0.0924 | 0.14 |  | 0.145 | 0.11 |  |  |  | 0.079 | 0.101 | 0.056 | 0.0579 | 0.131 | 0.0656 | 0.0481 | 0.0631 |  | 0.0743 |  |  |
| R51C | 0.0995 | 0.107 | 0.116 | 0.0791 | 0.0704 | 0.0708 | 0.0688 | 0.0634 | 0.107 | 0.0766 |  | 0.0589 | 0.108 | 0.062 |  | 0.0705 | 0.0657 |  | 0.0666 |  |
| R51M | 0.0876 | 0.099 | 0.0828 | 0.124 |  | 0.0582 | 0.0679 | 0.0323 | 0.103 | 0.0724 | 0.0769 | 0.0526 | 0.112 | 0.0632 |  | 0.0647 |  |  |  | 0.0679 |
| N52F | 0.0519 | 0.0762 |  | 0.071 | 0.0739 | 0.0629 | 0.0602 | 0.0476 | 0.0637 | 0.0608 |  | 0.0606 | 0.069 |  |  |  | 0.0635 | 0.117 | 0.0711 |  |
| N52S | 0.0645 | 0.0854 |  |  | 0.0622 | 0.0481 |  |  | 0.0735 | 0.0638 |  | 0.0595 | 0.0739 | 0.052 | 0.0498 | 0.0563 |  |  | 0.0657 | 0.0533 |
| N52T | 0.0688 | 0.0509 |  |  | 0.0789 | 0.0615 |  |  | 0.0732 | 0.0641 |  | 0.0517 | 0.0792 | 0.0574 |  | 0.0615 |  |  | 0.0517 | 0.0785 |
| N53G | 0.08 | 0.0834 | 0.0778 | 0.0899 | 0.0755 | 0.0622 |  | 0.0645 | 0.0826 | 0.0736 |  | 0.0576 | 0.0858 | 0.0599 | 0.0548 | 0.0662 | 0.0556 |  |  |  |
| T55E | 0.0907 | 0.101 |  | 0.0782 | 0.0765 | 0.0578 | 0.0609 | 0.0643 | 0.0891 | 0.0709 |  | 0.0696 | 0.0987 | 0.0662 | 0.0464 |  | 0.0856 | 0.0861 | 0.0774 |  |
| T55I | 0.074 |  |  | 0.105 |  |  |  | 0.0602 | 0.0825 |  |  | 0.064 | 0.0992 | 0.0624 | 0.0548 | 0.0637 | 0.0675 |  | 0.0539 |  |
| V57M | 0.114 |  | 0.0522 |  |  | 0.0588 | 0.0674 | 0.0555 |  | 0.0979 |  | 0.052 | 0.103 | 0.0792 | 0.053 | 0.0789 | 0.0346 | 0.0751 | 0.0504 |  |
| V57Y | 0.104 | 0.0997 | 0.0943 | 0.083 | 0.0865 | 0.0697 | 0.0589 | 0.0673 |  | 0.0675 |  |  | 0.0956 | 0.0635 | 0.0577 |  |  |  | 0.0882 |  |
